# In all, about 81,000 sequences were measured (“one-hybrid fitness for binding parS DNA”: median about -0.17, highest 2% from about 0.51 on). The list shows a part of the results.
# B1: Caulobacter ParB omega fusion; a variant is named by its letters at X, in order, B8GW30 (parent)
# chain: MESVVVGEPGMSEGRRGLGRGLSALLGEVDAAPAQAPGEQLGGSREAPIEILQRNPDQPRRTFREEDLEDLSNSIREKGVLQPILVRPSPDTAGEYQIVAGERAWRAAQRAGLKTVPIMVRELDDLAVLEIGIIENVQRADLNVLEEALSYKVLMEKFERTQENIAQTIGKSXSHVANXMRLLXLPDEVQSYLVSGELTAXHARAIAAAADPVALAKQIIEGGLSVRETEALARKAPNLSAGKSKGGRPPRVKDTDTQALESDLSSVLGLDVSIDHRGSTGTLTITYATLEQLDDLCNRLTRGI
# Variants of: B1
# Experiment: one-hybrid fitness for binding parS DNA (scaled: cognate 1, non-cognate 0); higher = stronger binding
# Conditions: with parS DNA site
# How it was run: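 Selection: bacterial one-hybrid in E. coli USO, HIS3 reporter with the site 19 bp from the promoter, 48 hours at 37°C on M9-minus-histidine plus 0.1 mM IPTG and 5 mM 3-AT. Libraries were Caulobacter ParB with four randomised specificity codons, sequenced on Illumina before and after selection. Fitness is the rescaled log change in variant-to-wild-type read ratio, anchored to the cognate and non-cognate sites.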
row,Variant,one-hybrid fitness for binding parS DNA
1,DITL,≤ 0.2
2,TWKV,≤ 0.2
3,LYRE,≤ 0.2
4,YSFC,≤ 0.2
5,DTEG,≤ 0.2
6,HHGY,≤ 0.2
7,QCGH,≤ 0.2
8,HAKT,≤ 0.2
9,TPSL,≤ 0.2
10,PFVG,≤ 0.2
11,QTKI,≤ 0.2
12,LQMV,≤ 0.2
13,MHVY,≤ 0.2
14,FTSQ,≤ 0.2
15,YREE,≤ 0.2
16,ALSA,≤ 0.2
17,RTVH,≤ 0.2
18,IQMT,≤ 0.2
19,QQYM,≤ 0.2
20,DTQF,≤ 0.2
21,PEKM,≤ 0.2
22,TDNS,≤ 0.2
23,NPLY,≤ 0.2
24,SNQS,≤ 0.2
25,IADR,≤ 0.2
26,GVYF,≤ 0.2

row,Variant,one-hybrid fitness for binding parS DNA
1,LWAY,≤ 0.2
2,MIGI,≤ 0.2
3,IFSA,≤ 0.2
4,SYNR,≤ 0.2
5,CAYG,≤ 0.2
6,PFQT,≤ 0.2
7,QEDS,≤ 0.2
8,NIPY,≤ 0.2
9,YDVW,≤ 0.2
10,PVQC,≤ 0.2
11,FQDC,≤ 0.2
12,ISES,≤ 0.2
13,NHSY,≤ 0.2
14,TEEA,≤ 0.2
15,PHAW,≤ 0.2
16,YKIS,≤ 0.2
17,FAQL,≤ 0.2
18,NASC,≤ 0.2
19,SYQS,≤ 0.2
20,PRKL,≤ 0.2
21,SEVG,≤ 0.2
22,ASKS,≤ 0.2
23,THPQ,≤ 0.2
24,LTAD,≤ 0.2
25,SEHT,≤ 0.2
26,CSCG,≤ 0.2

row,Variant,one-hybrid fitness for binding parS DNA
1,ANRL,≤ 0.2
2,RLCG,1
3,NTTM,≤ 0.2
4,KTKR,≤ 0.2
5,RISD,≤ 0.2
6,RFKC,0.991
7,IARS,≤ 0.2
8,CLDT,≤ 0.2
9,GFDG,≤ 0.2
10,CPFR,≤ 0.2
11,WNSG,≤ 0.2
12,GIGS,≤ 0.2
13,YYQR,≤ 0.2
14,SASK,≤ 0.2
15,QLGS,≤ 0.2
16,TAGV,≤ 0.2
17,RQKV,≤ 0.2
18,LDEQ,0.369
19,DRES,≤ 0.2
20,HVFI,≤ 0.2
21,PSEM,0.331
22,CKSA,≤ 0.2
23,GMFN,≤ 0.2
24,TLEL,≤ 0.2
25,LDVF,≤ 0.2
26,HLPR,≤ 0.2

row,Variant,one-hybrid fitness for binding parS DNA
1,SSML,≤ 0.2
2,MDSF,≤ 0.2
3,AQET,≤ 0.2
4,KTDC,≤ 0.2
5,ELRT,≤ 0.2
6,TCFA,≤ 0.2
7,PSAW,≤ 0.2
8,QLGD,≤ 0.2
9,SHIT,≤ 0.2
10,ASHL,≤ 0.2
11,DCNS,≤ 0.2
12,SIVR,≤ 0.2
13,TSVI,≤ 0.2
14,QCHM,≤ 0.2
15,VHVF,≤ 0.2
16,HVKN,≤ 0.2
17,PALH,≤ 0.2
18,DFMA,≤ 0.2
19,FNFR,≤ 0.2
20,WAHR,≤ 0.2
21,SGNT,≤ 0.2
22,CPVS,≤ 0.2
23,IQTR,≤ 0.2
24,YEYG,≤ 0.2
25,YTSR,≤ 0.2
26,LEQR,≤ 0.2

row,Variant,one-hybrid fitness for binding parS DNA
1,PGQR,≤ 0.2
2,HPPE,≤ 0.2
3,TFPS,≤ 0.2
4,ASAL,≤ 0.2
5,PAES,≤ 0.2
6,RSLE,≤ 0.2
7,ESIP,≤ 0.2
8,RVTC,0.982
9,SFFV,≤ 0.2
10,GNDK,≤ 0.2
11,MNHL,≤ 0.2
12,PTPP,≤ 0.2
13,ARWL,≤ 0.2
14,RTCP,≤ 0.2
15,FATW,≤ 0.2
16,AMAN,≤ 0.2
17,HYTA,≤ 0.2
18,TWEE,≤ 0.2
19,RYHH,0.213
20,VTTR,≤ 0.2
21,ALFC,≤ 0.2
22,CYAT,≤ 0.2
23,PGLS,≤ 0.2
24,DQNL,≤ 0.2
25,SLKQ,≤ 0.2
26,QDPS,≤ 0.2

row,Variant,one-hybrid fitness for binding parS DNA
1,NSKT,≤ 0.2
2,STNQ,≤ 0.2
3,CYPR,≤ 0.2
4,ACLY,≤ 0.2
5,RWAQ,≤ 0.2
6,TPFD,≤ 0.2
7,FHVY,≤ 0.2
8,LHSV,≤ 0.2
9,KNTH,≤ 0.2
10,DVPE,≤ 0.2
11,CHAY,≤ 0.2
12,AVKP,≤ 0.2
13,FAGQ,≤ 0.2
14,WMAQ,≤ 0.2
15,MDFK,≤ 0.2
16,PTFI,≤ 0.2
17,QGAC,≤ 0.2
18,AHLM,≤ 0.2
19,VKLY,≤ 0.2
20,HRTW,≤ 0.2
21,NPYM,≤ 0.2
22,AVGT,≤ 0.2
23,PYKW,≤ 0.2

# From a collection of fitness landscapes (doi:10.1016/j.celrep.2020.107928)
